{"source": "the supplement of paper PMC11417369", "note": "The list shows a part of the results."}
{"tested_on": "PF3D7_0420300 AP2 domain 1 (GST-tagged)", "assay": "gcPBM binding intensity (ln(normalized median fluorescence intensity)); higher = stronger DNA binding", "in_short": "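The binding buffer was 1× PBS containing 1% milk, 0.2 mg/ml BSA, 0.5% salmon testes DNA and 0.03% Triton X-100. In it, GST-tagged P. falciparum DNA-binding domains expressed in E. coli were applied for 1 h to an Agilent 4 × 180k array of primer-extended double-stranded 36-bp intergenic genomic probes plus negative controls. Binding intensity, read with Alexa488 anti-GST antibody and a 488 nm scan, is the highest Masliner-normalised natural-log median intensity across replicate spots of either probe orientation.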"}
{"sequence": "TTTTGTACTTCATGCGTGCACAGAAATATATTATAT", "gcPBM binding intensity (ln)": 9.21}
{"sequence": "GAATAAGATAGATATACACACCATTATAAATATAAA [CACACA_site5392]", "gcPBM binding intensity (ln)": 9.55}
{"sequence": "TTAAATAGATAAACTAAACACACAAAAAAAAAAAAA [CACACA_site8308]", "gcPBM binding intensity (ln)": 9.47}
{"sequence": "ATGTTAATCATTAAAAATAAAGTTTAATATAAGAAT [XGTACX_negctrl_site155]", "gcPBM binding intensity (ln)": 9.2}
{"sequence": "CAAAACAAGCAAAAATGTACTTGATAAATATTTTCT [XGTACX_site1776]", "gcPBM binding intensity (ln)": 9.2}
{"sequence": "AACATACCCATATACACACACACATAAATACAGATA [CACACA_site4744]", "gcPBM binding intensity (ln)": 10.1}
{"sequence": "ATTTAATTCTTTTGTTATAAAATTTTAGTATATATA [CACACA_negctrl_site1649]", "gcPBM binding intensity (ln)": 9.2}
{"sequence": "CAAAAAAAATTATACACACACACACCGATATATATA [CACACA_site4719]", "gcPBM binding intensity (ln)": 10.2}
{"sequence": "TTTATATATCAATACATTATGTATTAAGTCTTACAT [TGCATGCA_negctrl_site499]", "gcPBM binding intensity (ln)": 9.17}
{"sequence": "TTTTAATTAAAAAAATATATAATAAAATTAAATTAT [CACACA_negctrl_site95]", "gcPBM binding intensity (ln)": 8.77}
{"sequence": "GGTATATAAAAATATTGTACGAAAATATGCATATAA [XGTACX_site2501]", "gcPBM binding intensity (ln)": 9.24}
{"sequence": "GTATGTTAATTTAATTGTACAAAAAGATACACTGAT [XGTACX_site5710]", "gcPBM binding intensity (ln)": 9.32}
{"sequence": "TTTTAAAAAAAACAAAAACATTGTCATATGGAAAAT [CACACA_negctrl_site297]", "gcPBM binding intensity (ln)": 9.16}
{"sequence": "AAATATAAAAAATATACACACATATAAAATCTATAT [CACACA_site7406]", "gcPBM binding intensity (ln)": 9.67}
{"sequence": "AGGAACAATATATTTGCACACAAAAAATATATATTT [CACACA_site3316]", "gcPBM binding intensity (ln)": 9.44}
{"sequence": "TATATATATATAATTTGTACATATATATGTAACAAT [XGTACX_site8728]", "gcPBM binding intensity (ln)": 9.16}
{"sequence": "TTCTGCTACCACTTGAATGTCAATGAAATTAAAAAA [CACACA_negctrl_site1164]", "gcPBM binding intensity (ln)": 8.88}
{"sequence": "ATTTATAAAACAGGCACACATATAATAAATTTTATA [CACACA_site2600]", "gcPBM binding intensity (ln)": 9.54}
{"sequence": "TAATAATTATTGCACGCACACAAAAACCTATAGATT [CACACA_site2931]", "gcPBM binding intensity (ln)": 9.45}
{"sequence": "ACTATAAATATTTATAAACACACAAATATATATATT [CACACA_site7891]", "gcPBM binding intensity (ln)": 9.57}
{"sequence": "ATACAATACACCGAACGTACATAAATCTATCTTTTA [XGTACX_site3668]", "gcPBM binding intensity (ln)": 9.4}
{"sequence": "ATTTTTTTTTTTACAGTGGAACCATATTTGCTCATT [CACACA_negctrl_site940]", "gcPBM binding intensity (ln)": 9.2}
{"sequence": "GATTATCTATCGCTTGAATGAAATGAAATCATGCAA [GTGCAC_negctrl_site471]", "gcPBM binding intensity (ln)": 8.77}
{"sequence": "AATACCGGAAAGCAAACACACATTTTAAAACCATAA [CACACA_site3862]", "gcPBM binding intensity (ln)": 9.85}
{"sequence": "ATAATAAATGATAGCACACATATGTACATATATACA [CACACA_site864]", "gcPBM binding intensity (ln)": 9.53}
{"sequence": "AAATAAAATAAAAGCACACAAAATGTAAATAATTAT [CACACA_site2775]", "gcPBM binding intensity (ln)": 9.74}
{"sequence": "AAAATACTTTGAATTTGTACATATAGACATAATATT [XGTACX_site6181]", "gcPBM binding intensity (ln)": 9.11}
{"sequence": "CGCGAACATACATACACACACATATTTATATAGGTA [CACACA_site6241]", "gcPBM binding intensity (ln)": 9.81}
{"sequence": "AAAGAAATAAAAAAAAGTACACAATTATAAATATAT [XGTACX_site3428]", "gcPBM binding intensity (ln)": 9.55}
{"sequence": "GTATGTAATATTTTAGTGCAAAAAAAAAAAAAAAAA [GTGCAC_site9790]", "gcPBM binding intensity (ln)": 8.58}
{"sequence": "ACAAAAATATTTGTAAAAAGAAATATAAATAAATAA [TGCATGCA_negctrl_site357]", "gcPBM binding intensity (ln)": 9.13}
{"sequence": "AAAAATAGAGCAGCTCTCATATTTTTATGTGCAATA [CACACA_negctrl_site837]", "gcPBM binding intensity (ln)": 8.95}
{"sequence": "AGGATATATTATATGTACACACACATATAAGGGATT [GTGCAC_negctrl_site47]", "gcPBM binding intensity (ln)": 9.91}
{"sequence": "TATTACACACAATATTGTACACATAGGAAAAATATT [XGTACX_site1726]", "gcPBM binding intensity (ln)": 9.62}
{"sequence": "GCATTTATGAAAAATGTACACACATCAAATGCTTAT [CACACA_site9347]", "gcPBM binding intensity (ln)": 9.43}
{"sequence": "TATTTTTTACATTCGTGTACGCATTTTTGTGAATTT [XGTACX_site5339]", "gcPBM binding intensity (ln)": 9.28}
{"sequence": "TTTTAATTAGTACAAACACACATATACACCCAAAAA [CACACA_site5422]", "gcPBM binding intensity (ln)": 9.69}
{"sequence": "ATATAAAAAAGGGAGGTAAATGAATGTGAAACCCAA [GTGCAC_negctrl_site359]", "gcPBM binding intensity (ln)": 9.55}
{"sequence": "CTAATATAGGTATGCACACACAATATGTACATATTT [CACACA_site7558]", "gcPBM binding intensity (ln)": 9.74}
{"sequence": "TAATTTTTTTTAAACACACACATTACATTCAAAAAT [CACACA_site127]", "gcPBM binding intensity (ln)": 9.35}
{"sequence": "TTCACTAATAAATACGCACACATATACATATATATA [CACACA_site1383]", "gcPBM binding intensity (ln)": 9.49}
{"sequence": "TTTCAAATATATATAGCACACAAGGTATAATATAAA [CACACA_site877]", "gcPBM binding intensity (ln)": 9.32}
{"sequence": "TAATTGTAGACATGCACACACAAATATTATATATGT [CACACA_site845]", "gcPBM binding intensity (ln)": 9.69}
{"sequence": "AAGGTATAGAAACACACACACGTGAATATAGTTTAA [CACACA_site5109]", "gcPBM binding intensity (ln)": 9.71}
{"sequence": "TATATATGTATATATTGTACTTTAAGACAAATATAT [XGTACX_site1052]", "gcPBM binding intensity (ln)": 9.06}
{"sequence": "AATATTTTTCAATTTCATGTGCATTCATTGAAGTTA [CACACA_negctrl_site1232]", "gcPBM binding intensity (ln)": 9.13}
{"sequence": "TTCTTAAATATATTCAACATACATAATATATAATCT [CACACA_negctrl_site1806]", "gcPBM binding intensity (ln)": 9.09}
{"sequence": "TATATAACATATATATGTACACATAATATCAGATTT [XGTACX_site1041]", "gcPBM binding intensity (ln)": 9.27}
{"sequence": "CGTTATATAATAAAGGTGCATAGATATATCATTATA [GTGCAC_site9774]", "gcPBM binding intensity (ln)": 9.16}
{"sequence": "CCTCTCATTTTATATAGTACATATTTCAAAAAAAAA [XGTACX_site488]", "gcPBM binding intensity (ln)": 8.9}
{"sequence": "GCATATATGGATATATAGGTATATATAAATGCAATA [GTGCAC_negctrl_site24]", "gcPBM binding intensity (ln)": 9.24}
{"sequence": "AGGAGGATAGTTCACAGTACCCAGTAACTCTACGGA [XGTACX_site1997]", "gcPBM binding intensity (ln)": 9.12}
{"sequence": "ATATAAAAAAAAAATTGTACAAAAATATATACATAT [XGTACX_site469]", "gcPBM binding intensity (ln)": 9.19}
{"sequence": "GCATATTTTCCCTGTGAATAAAGTTTTTTTTTTTAT [XGTACX_negctrl_site87]", "gcPBM binding intensity (ln)": 9.44}
{"sequence": "TATAAAGATATAAATGCACACGTATTAAAAAAAAAA [CACACA_site8223]", "gcPBM binding intensity (ln)": 9.49}
